# Measured values reported in the RNAGym collection of RNA variant scans (doi:10.7554/elife.90254).
# Read counts are not given, so values of variants with three or more changes are uncertain.
# B1: LINE1-full (parent)
# chain: UACGUAGGUGGUUUUCCCCUGAUAGUGCUAAGGGGGCCUGGAAGUUUGGACUGGGCAGAGCUCAACACAGCGUGGCAAAGUGGCUGUGGCUAGACUGCCUCUCUGGAUUCCUCGUCACUCAGCAGGGCAUCUCUGAGAGAAAUGCC
# Variants of: B1
# Assay: self-cleavage, relative activity (ratio to wild type); higher = more cleavage; in vitro, sequencing; the parent is a self-cleaving ribozyme
row,Variant,self-cleavage
1,U46A U62C A121G A140G,0
2,A42C A57G C128U U134A,0.2
3,G4A A43G A77U U96C U100C,0.17
4,A30U A64U U132C,0.38
5,A6U U12G U87A A129G A140G,0
6,U26A U85A U102A U143C,0.1
7,U39C A121G U143A,1.58
8,U13C U52C A94G G114A,0.34
9,U46C G53A U62A G70C,0.03
10,A69G A79G U115C A141G,0
11,U26A U81C U87A U104A A124G,0.12
12,A6C A22G A79G U96A A141G,0.16
13,U1A C3U A57G,1.08
14,U1A U9A U45C U130C,1.44
15,A2G U26C A136U,1.19
16,U13G U14C U20C U46C A79G,0
17,A31U U62C A79G C146U,0.13
18,U29A U62C C84U,0.03
19,U12C C16U A142G,1.29
20,A43U A77U U119C,1.3
21,U46C G49U U134C,1.29
22,U96A A117G U119C A142G,0.21
23,G4U U47A U112C,1.44
24,U39C A69G A79G A94U,0.92

row,Variant,self-cleavage
1,A31G A67G U119C,1.53
2,A30U U45C U108C,1.02
3,U62A U100C U102A,0
4,U14A U85A U102C,0.15
5,U12C C28U U62A A69G,0.1
6,U73C U81A C103U C128U,1.71
7,A6C U14C U85A,0.31
8,U46C U47C A121U U130C,0.51
9,U13A U119A A124U,0.97
10,A79C U100C U119A A124G A142G,2.51
11,A57G U73C U115C,0.71
12,U20C U81A U85A U104G,0.2
13,U13C A69G G88A,0.11
14,G86A U104C A117G,0.15
15,A31U A43G U62C,0.12
16,A64G C90U U119A A142G,0.03
17,U62C U81C U130C U143C,0
18,U62C A117C A141G,0.04
19,A6U C71A A121G,0.75
20,U20A A59G U112C A140G,0.13
21,A117G U134G A138U,1.78
22,U20A G40A U47C A67G,0.09
23,U45C A64U A78G,0.33
24,U14A A43G A92G,0.09

row,Variant,self-cleavage
1,U15C G48A A57C U102A A121U,0.01
2,U47C A78G A107G G114A,1.48
3,A6U U13C A22G A117G C118U,1.01
4,C19U G35A U47A A142G,1.01
5,C16U U45A A94G A136G,0.34
6,U12G U62C A117G,0.14
7,U5C U12C C128A A129G,0.78
8,A57G G60A A64G A121U U132C,0.07
9,U46C G48U U96C U132C,0.23
10,U14C U20C U85C,0
11,U1C U12C U15C A129G,1.68
12,U15G G53A A136G,1.38
13,U26A A77U G83A,0.46
14,A22G A57G U134A,0.74
15,A57U U132C A140G,0.07
16,U5C U100C U112C,0.61
17,G93U U132C C146U,0.03
18,U91C U104A A140G,0
19,U9C G32A G41A A59G U104C U115C A129U,0.19
20,A6U G41U U46C,1.1
21,U39A A57U A121G,0
22,C19U U46A A50U U143C,1.18
23,G35A A124G A129U,0.98
24,A30U U45C A140G,1.43

row,Variant,self-cleavage
1,U14C U119C U143A,1.91
2,U9G U14C U109C,0.93
3,U1C U9C A43G U100C A124U A136G,2.9
4,G72A A79G U115C,1.25
5,G7A U13C U100C,2.54
6,U15A A30U A129C A140G,0.87
7,U52A A65G C103G,0.03
8,A2G U85G A124U,0.26
9,A59G U109A A136G U143A,0
10,U62A C98U G122U,0.01
11,U13C U23C A78G A140G,1.25
12,C18U C61U A65G A129G,0.04
13,U5C A69G G122A A140G,0.68
14,U5C U14A A65G U73C U108A,0
15,A77G A94G A107G G125U A140U,0
16,G36C A43G U119A,1
17,G36C A57G A142G,0.55
18,U9C U15A U112C,1.16
19,U26C U119A U143C,1.91
20,U23A U62C G80A,0.11
21,C17U C18U U26C A30U A78G A140G A142G,0.35
22,G11A U132C A138G,1.29
23,C17U A59G U85C U132A,0
24,C56U G72C G127A,0.2

row,Variant,self-cleavage
1,U85A A94G U104C,0.15
2,U20C G21A U109C C113A,1.58
3,U23C U46A A140G,1.09
4,U26C A59G U62A A141G,0.07
5,U39C U132C A142G,1.05
6,A6G A64U C66U U81G A141G,0.05
7,A94G A136G C145G,0.34
8,U13C G21A U85C,0.27
9,A64G A121U C133A,0.36
10,A22G U47C A78G,0.63
11,U9C U39C A65C A140C,0.28
12,U15A U47G A67G,0.78
13,U9A A31C A121G A140G,1.67
14,U87C U109C A129G,0.2
15,U20G A42G U96C A141G,0.1
16,A22G U91C U100C,0
17,U81A U108C A124U C133U A136G,2.87
18,U13C U15C A43U A94G U104C A121U A142G,0
19,A2G U5C U46C C110U,0.55
20,A24G G33U U96C,0.27
21,G4A G74A U96G,0.24
22,C51G A67G U87C,0.71
23,A6G U13C U26C A141G,0.66
24,U46A A78G A117G A138G,0.99

row,Variant,self-cleavage
1,G41U A77G A78U U109C A129U,2.71
2,G4A A31G G32A U45C,0.63
3,U47G A59G G74A A140U,0.06
4,U14A A43G U91C A141G,0.62
5,U12C G55A U91A,0.6
6,A42G G86A A138G,0.09
7,U23C U26A A67G,0.2
8,U1C U47G U112C,0.2
9,U1C U5A U102A U109C U130C,1.53
10,U9A A107G G135U,1.19
11,U1A U73C A92U,0.79
12,U5A U14C U52A U85C,0.3
13,A78G A94U U100C,0.21
14,U12C A42G A140G,1.53
15,C19U G48A A59G C71U,0.08
16,U9C A69U U104A,0
17,G34A A124U A141G,1.44
18,U13C C63U U104A G127A A142G,0.18
19,U13G U15C A57U,0.17
20,U20A A22G U109C A121U,0.48
21,A59G A94G A124G,0.21
22,A22G A50G C120A,0.62
23,U15C U73G U100C,1.23
24,U5C U15C U45A U102C,0.98

row,Variant,self-cleavage
1,U39C G48A U134A,0.51
2,C19U A107G U134A,0
3,U26C A31U U119C U130A,0.69
4,G72U A78G A129C,1
5,U14C A124U A129G,2.3
6,G33U U85G U143C,0
7,U14C A64G U100C,0.25
8,A50G U100C U112C,0.77
9,U47A U52A U100A U112C A140G U143C,1.91
10,A79G U96C A117G,0
11,A31G U87A A140G,0.33
12,G44A G60A A78G U109C U134C,0.03
13,U29C A57U A79U,0.1
14,U20C A57G A67G,0
15,U73A U85C A140G,0.09
16,A43G G75A U87C G97A U130C A138G,0.05
17,U26C A57U U112C A140G,0.1
18,A64U G88A U96C,0.04
19,U26C U96C A140G,0
20,G32U U87A U109A,0.06
21,G54U A57G A92U,0.12
22,A22G A43U U115C,0.66
23,U1C A57U A64C U91A U132A,0.22
